In PubChem BioAssay (NCI):
Where “and” joins values, the source holds several entries; their conditions need not be identical. Equal values may be shown once.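 Compound exposure: 48 hours, 5 concentrations, 96-well plates. The concentration for 50% growth inhibition is given as GI50. TGI: total growth inhibition.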

tested on: NCI-H322M lung; test: NCI anticancer screen, dose series, 48 h

Compound | TGI | GI50
Cc1cccc2c1c(=O)c1c(O)cc3c(c1n2C)C=CC(C)(C)O3 | > 100 µM | 
O=C(c1cccs1)c1nc2cc(Cl)ccc2[n+]([O-])c1C(F)(F)F | > 100 µM | > 100 µM
OCC1OC(n2cnc3c(SCc4ccccc4)ncnc32)C(O)C1O (centres undefined) | > 100 µM | 
O=C(Cc1ccc(Nc2ccnc(C(F)(F)F)c2)cc1)N/N=C/c1ccccc1O | > 80.4 µM | 2.26 µM
CCCCCCc1cc2cc(-c3csc(/C=C/c4ccccc4)n3)c(=O)oc2cc1O | > 100 µM | 40.7 µM
COc1cc2c3c(n(CCCN4CCCNCC4)c(=O)c2cc1OC)-c1cc2c(cc1C3=O)OCO2 | 9.28 µM | 2.55 µM
O=c1nc2c(c(-c3ccc(F)cc3)[nH]1)COC/C2=C\c1ccc(F)cc1 | > 100 µM | 
CCN(CC)C(=S)N/N=C/c1cc(OC)ccc1O | > 100 µM | 
O=C1/C(=C/c2ccc(Cl)cc2)N=C(c2ccccc2)N1/N=C/c1ccccc1O | 23.3 µM | 
C=C1CC(C)(COc2cc(=O)oc3ccccc23)OC1=O (centres undefined) | 21.6 µM | 
Fc1ccc(C2SCc3nc4ccccc4n32)cc1F (centres undefined) | > 100 µM | 
C#CCn1c(=O)c2cccnc2n(CC#C)c1=O | > 100 µM | 
COc1ccc(NS(=O)c2c(C)cc(C)cc2C)cc1 (centres undefined) | > 100 µM | 
O=C1CCCC2=C1CC1=C(CCCC1=O)N2c1ccc([N+](=O)[O-])cc1 | > 100 µM | 
CC(=O)OCC1OC(OC(C)=O)C(Nc2ncc(-c3ccc(C)cc3)s2)C(OC(C)=O)C1OC(C)=O (centres undefined) | 41.2 µM | 
CC(=O)SC(SC(C)=O)SC(C)=O | > 100 µM | 
Brc1ccc(Nc2nc3ccccc3nc2Nc2ccc(Br)cc2)cc1 | 10.1 µM | 2.07 µM
COC(=O)CC(CNC(=O)OCc1ccccc1)OCc1ccc(OC)cc1 (centres undefined) | > 100 µM | 
O=C1C(=C([O-])c2ccccc2)C(=O)c2ccccc21.O=C1C(=C([O-])c2ccccc2)C(=O)c2ccccc21.[Co+2] | > 100 µM | > 100 µM
COC1=CC(=O)OC(/C=C(C)/C=C/C2=C(C)CCCC2(C)C)C1 (centres undefined) | > 100 µM | 
Cc1cc2c(cc1C)[n+](=O)c(C(=O)CC(=O)C(=O)Nc1ccccc1C(C)C)c(C)n2[O-] | > 100 µM | 
COc1ccc(C2CC(c3ccc4ccccc4c3)=NN2c2nc(O)c(C3=c4cc(OC)ccc4=NC3=O)s2)cc1 (centres undefined) | 0.852 µM | 0.0669 µM
Cn1c(NCC(CN2CCCC2)OC(=O)c2ccccc2)cc(=O)n(C)c1=O (centres undefined) | > 100 µM | > 100 µM
NCCCNc1nc2ccc(Cl)cc2c2c(=O)c3cc(F)ccc3sc12 | 20.7 µM | 7 µM
COC(=O)c1nc(C(=O)OC)c2c([nH]c3ccccc32)c1C(=O)OC | > 100 µM | 

Compound | TGI | GI50
CCCCN(CC)CCCCCCCCCCN1CCCc2cc(OC)ccc21 | 37.7 µM | 8.9 µM
COCC12CCC(OC)C34C5CC6(O)C(OC)C=C(C5C6OC(=O)c5ccccc5)C(C(OC)C13)C4N(C)C2 (centres undefined) | > 100 µM | 
CCC1c2cc3n(c(=O)c2COC1O)Cc1c-3nc2ccccc2c1Cl (centres undefined) | > 100 µM | 
CCN(CC)CC(O)COc1c(Br)c(Br)c(Br)c2c1OC(C)(C)C2 (centres undefined) | 29.3 µM | 14.1 µM
COC(=O)[C@@H](OC(C)=O)[C@@H](OC(C)=O)c1nnc2ccc(Cl)nn12 | > 100 µM | 
CN1C(=O)CN2C(Cl)(Cl)C2(c2ccccc2)c2cc(Cl)ccc21 (centres undefined) | > 100 µM | 
CC(=O)O[C@H]1CC[C@@]2(C)C(=CC[C@@H]3[C@@H]2CC[C@](C)(c2nnc(C)o2)[C@H]3CC#N)C1 | > 100 µM | 
S=C(Nc1ccc2c(c1)oc1ccccc12)c1cccs1 | > 100 µM | 
O=C(Cc1ccccc1)N/N=C(/c1nc2ccc([N+](=O)[O-])cc2[nH]c1=O)C(O)c1ccc(C(O)/C(=N/NC(=O)Cc2ccccc2)c2nc3ccc([N+](=O)[O-])cc3[nH]c2=O)cc1 (centres undefined) | > 100 µM | 
O=[N+]([O-])c1ccc(/C(Cl)=C/c2ccc(/C=C(\Cl)c3ccc([N+](=O)[O-])cc3[N+](=O)[O-])cc2)c([N+](=O)[O-])c1 | > 100 µM | 
Cn1c(=O)c2[nH]c(CCCc3ccc([N+](=O)[O-])cc3)nc2n(C)c1=O | > 100 µM | 
CCOC(=O)[C@@H](C)C[C@H](Cc1ccccc1)NC(=O)c1csc([C@@H](C[C@H](C(C)C)N(C)C(=O)[C@@H](NC(=O)[C@H]2C[C@H](O)CCN2C)C(C)C)OC(C)=O)n1 | > 16.7 µM | 0.00839 µM
O=C1CC(C(OCc2ccccc2)C(OCc2ccccc2)C(OCc2ccccc2)C(COCc2ccccc2)OCc2ccccc2)CC(=O)N1 (centres undefined) | > 100 µM | 
Cc1cc(C)nc(NCCC(O)(P(=O)(O)O)P(=O)(O)O)n1 | > 100 µM | 
CC(=O)N(CCN1C(=O)c2ccccc2C1=O)CCN1C(=O)c2ccccc2C1=O | > 100 µM | 
O=C(O)C1=CN(c2ccncc2)C(c2ccco2)=CC1c1ccccc1[N+](=O)[O-] (centres undefined) | 31 µM | 
OCCCc1cnco1 | > 100 µM | 
CC[C@@H]1CC[C@@H]2[C@H](CC[C@]3(C)[C@@H](OC(C)=O)CC[C@@H]23)[C@H]1C(=O)OC | > 100 µM | 
O=C1CCSc2nc(-c3ccc4c(c3)OCO4)nn21 | > 10 µM | 
N#CCC1C2CC3C(C2=O)C13 (centres undefined) | > 100 µM | 
O=C(Cc1ccccc1)NN1C(=O)C(Cl)C1c1cccc([N+](=O)[O-])c1 (centres undefined) | > 100 µM | 
c1ccc(-c2cc(-c3ccncc3)cc(-c3ccncc3)n2)cc1 | > 100 µM | 
CN1C(C)(C)CC(=O)C(Br)C1(C)C (centres undefined) | > 100 µM | 
CCOC(=O)C1(C#N)C(C#N)(C#N)C1(C#N)C#N | > 100 µM | 
O=C(/C=C/c1nnc2n(Cc3ccccc3)c(=O)c3c4c(sc3n12)CCCC4)c1ccccc1 | > 100 µM | > 100 µM

Compound | TGI | GI50
COC(=O)[C@H](COC(C)(C)C)NC(=O)N[C@H](C)c1ccccc1 | > 100 µM | 
CCC(C)CC(C)C(=O)c1c(O)ccn(O)c1=O (centres undefined) | > 100 µM | 2.25 µM
CCCCOC(=O)NC(Nc1ccc(S(=O)(=O)Nc2ncccn2)cc1)(C(F)(F)F)C(F)(F)F | > 100 µM | 
O=c1nc(N2CCCC2)nc(N2CCCC2)s1 | > 100 µM | 
COc1ccccc1N1C(=O)CSC1c1cc(OC)c(OC)c(OC)c1 (centres undefined) | > 100 µM | 
N#Cc1c2ccccc2c2nnc3ccc(C(F)(F)F)cc3n12 | > 100 µM | 40.9 µM
C/C(=N\O)c1cccc(Nc2cc(-c3ccccc3)nc3c(O)cccc23)c1 | 31.8 µM | 8.76 µM
C/C1=C/C[C@@H](/C(C)=C/c2csc(C)n2)OC(=O)C[C@H](O)C(C)(C)C(=O)[C@H](C)[C@@H](O)[C@@H](C)CCC1 | 0.186 µM | 
N#Cc1c2ccccc2c2nnc3ccccc3n12 | > 100 µM | 54.5 µM
O=C1NC(=O)C2C1C1C=C3c4ccccc4N(c4ccccc4)C32[C@H]2C(=O)NC(=O)[C@@H]12 (some centres undefined) | > 100 µM | 
CC(CNC(=O)c1ccccc1)(CNC(=O)c1ccccc1)[N+](=O)[O-] | > 100 µM | 
CN1CC=C(c2cccn2C)CC1 | > 100 µM | 
O=C(N/C=C/C=C/Sc1ccccc1)OCc1ccccc1 | > 100 µM | 
CC(Cc1cccc2c1Nc1ccccc1S2)N(C)CCO (centres undefined) | > 100 µM | 
O=C1C=CC(=O)N1c1ccc(I)cc1 | 36.9 µM | 
CC(C)CC(NC=O)C(=O)NC(Cc1ccccc1)NC(=O)CNC(=O)C(C)NC(=O)C(N)Cc1ccc(O)cc1 (centres undefined) | > 100 µM | 
CCOC(=O)c1cn(CC)c2ccc3ccsc3c2c1=O | > 100 µM | 
Cc1ccc(S(=O)(=O)ON2C(=O)c3c(N)c(C#N)c(-c4ccccc4)c(-c4ccccc4)c3C2=O)cc1 | > 100 µM | 
CCc1nc2ccccc2c(=O)n1/N=C(\N=Nc1ccc(Cl)cc1)c1ccccc1 | > 100 µM | 
Cc1cnc2c(c1)C(=O)N(c1ccc([N+](=O)[O-])cc1)S2(=O)=O | > 100 µM | 
C=C1C(=O)OC2CC1C(OC(C)=O)C/C(C)=C/CC/C(C)=C\CCC2(C)O (centres undefined) | 31 µM and 32.2 µM | 
O=C(CCN1CCC(CCO)CC1)Nc1ccc2c(c1)C(=O)c1ccc(NC(=O)CCN3CCC(CCO)CC3)cc1C2=O | 43.1 µM | 
O=c1c(O)cc2c(O)oc3c(=O)c(O)c(O)c4c(O)oc1c2c43 | > 100 µM | 
C=C1C(=O)c2cc3c(cc2C(c2cc(OC)c(OC)c(OC)c2)[C@@H]1C(=O)O)OCO3 (some centres undefined) | > 100 µM | 
CCOC(=O)/C(=C/c1ccccc1Br)P(=O)(OCC)OCC | 13.4 µM | 

Compound | TGI | GI50
O=[N+]([O-])c1ccc(CN=C2NNS(=O)(=O)c3ccccc32)cc1 | > 100 µM | 
CC(C)COP(C)(=O)C(N)(C(F)(F)F)C(F)(F)F (centres undefined) | > 100 µM | 
CCCCCCCc1cscc1-c1cscc1Br | > 100 µM | 
O=C(O)CCC1CCc2cccc(OCC(=O)O)c2C1=O (centres undefined) | > 100 µM | 
c1ccc2nn(C3CCCO3)nc2c1 (centres undefined) | > 100 µM | 
COc1cc2c(cc1O)Cc1c-2[n+](C)cc2cc(OC)c(OC)cc12 | > 100 µM | 
CCC(C)(C)[C@H](NC(=O)[C@H]1CCCCN1C)C(=O)N(C)[C@H](C[C@@H](OC(C)=O)c1nc(C(=O)N[C@@H](Cc2ccccc2)C[C@H](C)C(=O)O)cs1)C(C)C | > 16.7 µM | < 0.00167 µM
Oc1ccc(Cc2ccc(O)c(C3CC(c4ccc(Cl)cc4)=NN3)c2)cc1C1CC(c2ccc(Cl)cc2)=NN1 (centres undefined) | > 100 µM | 3.56 µM
CCCCCCCCCCCCCCCC(=O)Nc1ccn(C2CCC(COP(=O)(O)OCC3OC(n4cc(F)c(=O)[nH]c4=O)CC3OC(C)=O)O2)c(=O)n1 (centres undefined) | > 100 µM | 
CC1(C)OC2C(CO)OC(n3ccc(N)nc3=O)C2O1 (centres undefined) | > 100 µM | 
COc1cc2cc3c4cc(OC)c(OC)cc4cc[n+]3c(C)c2cc1OC | > 100 µM | 
O=P(CCOc1ccccc1OCCP(=O)(c1ccccc1)c1ccc2c(c1)OCCOCCOCCOCCO2)(c1ccccc1)c1ccc2c(c1)OCCOCCOCCOCCO2 (centres undefined) | > 100 µM | 
COc1ccccc1NC(=O)C(=O)Cc1cnc2ccccc2n1 | > 100 µM | 
CS(=N)(=O)CCC(N)P(=O)(O)O (centres undefined) | > 100 µM | 
NC(=S)N/N=C(\CCC(=O)Nc1ccccc1[N+](=O)[O-])CC(=O)c1ccco1 | > 100 µM | 
Cc1cccc(N=C/C=C(\Cl)c2ccc3ccccc3c2)c1 | 50.3 µM | 
CC1CCC2CC1NC(=O)CCOCCC(=O)NC2(C)C (centres undefined) | > 100 µM | 
CCCCCC#COC1CC(C)CC[C@@H]1C(C)C (some centres undefined) | > 100 µM | 
N#CC(/C(=N/NC(N)=S)C(=O)Nc1cccc(Cl)c1)c1ccccc1 (centres undefined) | > 100 µM | 
O=[N+]([O-])/C=C/c1cc2ccc3ccccc3c2[nH]1 | 8.97 µM | 
CC1(C)SCc2nc3ccccc3n21 | > 100 µM | 
O=C(O)c1cccc(OCCOc2cccc(C(=O)O)c2[N+](=O)[O-])c1[N+](=O)[O-] | > 100 µM | 
O=C(Oc1c(Br)cc(Br)cc1C(=O)Oc1ccccc1)C(=O)Oc1c(Br)cc(Br)cc1C(=O)Oc1ccccc1 | > 100 µM | 
C=C(CCC/C(C)=C/C=C/[C@H](C)CCCc1ccoc1)C[C@@H]1OC(=O)[C@H](C)[C@@H]1O | 10.3 µM | 
C=CC(=O)NCNC(=O)C=C | > 100 µM | 
